# Laboratory results: the supplement of paper PMC11417369
# This is one part of the list.
# System: PfSIP2 AP2 domain 1 (GST-tagged)
# Assay: gcPBM binding intensity (ln(normalized median fluorescence intensity)); higher = stronger DNA binding
# Outline: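 Binding of GST-tagged P. falciparum DNA-binding domains, expressed in E. coli and used at about 25 μg on average, was carried out for 1 h in 1× PBS containing 1% milk, 0.2 mg/ml BSA, 0.5% salmon testes DNA and 0.03% Triton X-100. The target was an Agilent 4 × 180k array of primer-extended double-stranded 36-bp intergenic genomic probes plus negative controls, read with Alexa488 anti-GST antibody at 488 nm. Binding intensity is the highest Masliner-normalised natural-log median intensity across replicate spots of either probe orientation.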
row,Sequence,gcPBM binding intensity (ln)
1,CATATATATTTGTTCACACACACACCCAAAAAAAAA [CACACA_site2476],7.32
2,TATATATATATATATTGTACATAATGTATATATGTT [XGTACX_site3448],9.25
3,TATAGGTATGTATGTACACACAAAAAATGGAATATA [CACACA_site7704],7.2
4,AAAAAAAAAAAAAGGTGTACATGCAAAATAAATTCT [XGTACX_site4592],7.37
5,AAATAAATAAGAAACGCATGCATATATAATATATAA [TGCATGCA_site326],6.99
6,TCCTCGCGTAATACTTTTCAAATAAAAAAAATAAAA [TGCATGCA_negctrl_site403],7.29
7,ATTAAAAATTAATATAAACACACAAAAATTAATAAA [CACACA_site8019],6.88
8,TTTTTTTTTTTTTATTGTACTAGTAGATATATATAC [XGTACX_site3463],7.38
9,GTGTCAAATTTTATAACACACAAAAGATTATATAAG [CACACA_site4086],7.07
10,CCAATATATACATATATATAGTTATATATATTTCCT [TGCATGCA_negctrl_site38],6.98
11,AAACATACTTGATGCAGTACACATTATAAGCACATA [XGTACX_site3359],7.42
12,GGACTTAAATAAAATGGTACAGAATTTATATATATT [XGTACX_site8214],6.83
13,TAATGGAATACATATAGTACATAATATTACATACAT [XGTACX_site5737],6.94
14,TTTTAAAAATTAAAAAAATTAAATGTAAAAAAATGA [CACACA_negctrl_site861],7.12
15,ATATATGTATATGTGTGTACATATATGTTTATTATT [XGTACX_site6043],7.11
16,TTTTTTTTTTTTTTTACACACAAATGTATACTATAT [CACACA_site1787],7.03
17,TATTAAATATTCATATGTACATATAGTTTATAAATT [XGTACX_site7455],7.03
18,AAAACGGATTCTTTATAAATAAATAAATAAATATAA [XGTACX_negctrl_site157],6.98
19,ATATATGTATGTTAGACACACATATTATAATATGTT [CACACA_site116],6.98

row,Sequence,gcPBM binding intensity (ln)
1,AATACATACACAAATACACACACAAATACATACACA [CACACA_site8134],7.18
2,TTTATCAAAAAAAAAAAAAAAAAAAAAAAAAATTGT [CACACA_negctrl_site176],6.83
3,TATATGTTTTATAAATGTACATATACTTAAATATTT [XGTACX_site4753],7
4,TTATGTGCTTTAAAAGTGCATTTTTTTTTTTTTTTT,8.51
5,TTTTTTGTTATGCGGGTGCATATAATAATGTGATGA,10.8
6,TTATTTGTATCCATTTCACACATTTTATATAGTATC [CACACA_site5989],7.15
7,AATACATAATAACGTTGTACAAAAATTATAATACAT [XGTACX_site6508],7.24
8,ACTATTAAGAATAAAGAAATATGTAATTGTATTTAA [CACACA_negctrl_site516],6.79
9,TATAAATAAATGTGTACACACATTAAAATCAAACGT [CACACA_site2340],7.13
10,ATATATTTAATATTCACACATAATTATTTTTACTCT [CACACA_site5438],7.05
11,ATATAATGATAATATTGTACATGTTATATTTCAATA [XGTACX_site8645],6.94
12,TATAGATAAGAATATGCACACATTTTATTTTTTTTT [CACACA_site1982],7.16
13,TTGTAATATCTTGTCACACATATATATATATATATA [CACACA_site4937],9.38
14,TTTTTAATTTATTAAGAAGTAAAGAATAACTCTTTT [TGCATGCA_negctrl_site101],6.48
15,AAACATTAAAATAACTCACACATTTTTCTAGTCTTC [CACACA_site4612],6.77
16,GTATTATCTTTTAATAGTACATATTTTTTTGAAACA [XGTACX_site4050],6.97
17,AATATATTTTTATATTGTACAAAAGAAAAAAAATAT [XGTACX_site1689],7.15
18,CATATAATATTTGAAACTATATATAAATATAAGGTA [TGCATGCA_negctrl_site19],6.78
19,AGTTTTCCATGTTAATGTACTTAACAATACCATAAT [XGTACX_site209],7.18

row,Sequence,gcPBM binding intensity (ln)
1,ATTTATTCATAGACAACAAGAAAAAAAAAAAAAATT [CACACA_negctrl_site1168],6.77
2,TATATCCATATTGTATGTACACATATAATACCAATG [XGTACX_site7230],6.97
3,CATACATACAGACACACACACATATATATATATATA [CACACA_site2920],9.55
4,AACATAAAAATGAACATACACACATATATATATATA [CACACA_site2497],9.39
5,ATAAAAATACAGTTAACACACATGTGGATATATATG [CACACA_site3771],7.19
6,AAACAAAAAAGTAAGAAAAGGGATGATTGGATCCAA [CACACA_negctrl_site1230],6.54
7,AGATATTATAATTAATGTACAAAAAGAAAAAATAGA [XGTACX_site8964],7.04
8,TATTATTCTGTATTTGCATGTGATCATATATATGTA [TGCATGCA_site1053],7
9,CATATGTATATGACTACACACAAGGGTGTACAGATA [CACACA_site4776],6.93
10,TATATAACATAATATACACACATTATGTGCGTAATT [CACACA_site4073],6.89
11,GTATATCATTTTGGGGTGCTTAAAAATAATGAATAC,9.07
12,TTTTTTTTTTTTTATTGTACAAAGGTATAAAATAAT [XGTACX_site2396],7.18
13,GCGAGATGCTAAAATGCATGTTGGGCATTAGTTAAA [TGCATGCA_site586],6.63
14,TATAATAATTCTTTGAGTACTTAAACATGTGAAATT [XGTACX_site955],7.08
15,TATCATTTCTAAAAAGGTACACATACATCATATATT [XGTACX_site3386],6.93
16,ATATTAATATATGTGGCACACATGTGGAGTCCTATT [CACACA_site213],6.99
17,GTGTAGTAAAATCGATGTACGTACAAATCAATTATT [XGTACX_site7662],7.03
18,AAAAAAATGAAGAAATGTACAAATTTCATTAATTTT [XGTACX_site354],6.8
19,TATATATGTAAATGCACACATATGTGGATATACTTA [CACACA_site1699],7.14
